These results are taken from PubChem BioAssay (NCI).

Test systems include RPMI-8226 leukemia; LOX IMVI melanoma; MCF7 breast; SK-MEL-28 melanoma; COLO 205 colon; 786-0 renal; EKVX NSCLC; HCC-2998 colon; HCT-15 colon; HOP-62 NSCLC; HOP-92 NSCLC; IGROV1 ovarian; MDA-MB-231 breast; MDA-MB-435; OVCAR-4 ovarian; SF-268 CNS; SK-OV-3 ovarian; SN12C renal; SR leukemia; SW-620 colon; TK-10 renal; U251 CNS; UACC-62 melanoma; CCRF-CEM leukemia; DU-145 prostate; HCT-116 colon; KM12 colon; NCI-H23 lung; NCI-H460 lung; OVCAR-8 ovarian; PC-3 prostate; SF-295 CNS; SK-MEL-2 melanoma; SK-MEL-5 melanoma.

Common to all, as to assay: DTP human tumour cell line panel, 48 h

Structures are written as SMILES.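 48-hour exposure; five concentrations; linearly interpolated endpoints. The concentration for 50% growth inhibition is given as GI50.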 Certain results were filed several times, with different values. The list is limited to them. The source may hold further records. For part of these data: Values that stand side by side repeat one measurement in other runs, samples, wells, individuals or studies. A tag in brackets gives the origin of a value. The letters are not those of the source and start again with each entry.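 TGI marks complete inhibition of growth.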 For part of these data: A record mostly stands for its own series of concentrations, which the source does not state; a value can be the end of its range.

As a reminder, the TGI is the concentration at which net growth stops. Low values mean more potent growth arrest, high ones less potent growth arrest. Take `C/C=C(\CCC1NCCc2c1[nH]c1ccccc21)[Si](C)(C)C` (centres undefined): in the assay on RPMI-8226 leukemia, the concentration for total growth inhibition (TGI) is 56.5 µM [sample A, 1 test] and 5.57 µM [sample B, mean of 2 tests].
As for `c1ccc2c(Nc3ccc(Oc4ccc(Nc5c6ccccc6nc6ccccc56)cc4)cc3)c3ccccc3nc2c1`, the TGI in the assay with LOX IMVI melanoma is 30.6 nM and 2.39 µM; in the assay with MCF7 breast it was 333 nM and > 37.6 µM; with SK-MEL-28 melanoma, 4.31 µM and 390 nM.
Turning to `CC(=O)[O-].[Ni].c1ccc(/C(=N\Nc2ccccn2)c2ccccn2)cc1`, the concentration for total growth inhibition (TGI) in the assay with COLO 205 colon was 86.5 nM and 15.8 µM.
For orientation: GI50 means the concentration giving 50% growth inhibition. Read a low GI50 as greater sensitivity of the cells. Turning to `Nc1nc(Cl)c(N=Nc2ccc(Cl)cc2)c(NCC2(CO)CC(OCc3ccccc3)C2)n1` (centres undefined), the TGI in the assay with 786-0 renal is 42.1 µM [sample A, mean of 2 tests] and > 79.4 µM [sample B, mean of 2 tests] and 6.85 µM [sample C, mean of 2 tests]; in the assay on EKVX NSCLC it was 7.76 µM [sample A, mean of 2 tests] and > 100 µM [sample B, mean of 2 tests] and 15.5 µM [sample C, mean of 2 tests]; in the assay on HOP-92 NSCLC it was 8.62 µM [sample A, mean of 2 tests] and > 100 µM [sample B, mean of 2 tests] and 10.3 µM [sample C, mean of 2 tests]; in the assay with MDA-MB-231 breast, 3.98 µM [sample A, mean of 2 tests] and > 100 µM [sample B, mean of 2 tests] and 24.1 µM [sample C, mean of 2 tests]; in the assay with OVCAR-4 ovarian, 9.47 µM [sample A, mean of 2 tests] and > 100 µM [sample B, mean of 2 tests] and 17.5 µM [sample C, mean of 2 tests]; with SR leukemia, 9.17 µM [sample A, 1 test] and > 100 µM [sample B, 1 test] and > 100 µM [sample C, 1 test]. Further, the GI50 in the assay with HCC-2998 colon was 14.1 µM [sample A, mean of 2 tests] and > 95.2 µM [sample B, mean of 2 tests] and 4.65 µM [sample C, mean of 2 tests]; with HCT-15 colon, 5.18 µM [sample A, 1 test] and > 88.6 µM [sample B, mean of 2 tests] and 4.18 µM [sample C, mean of 2 tests]; with HOP-62 NSCLC, 10.8 µM [sample A, mean of 2 tests] and > 100 µM [sample B, mean of 2 tests] and 8.84 µM [sample C, mean of 2 tests]; with IGROV1 ovarian it was 10.7 µM [sample A, mean of 2 tests] and > 85.9 µM [sample B, mean of 2 tests] and 4.83 µM [sample C, mean of 2 tests]; in the assay with MDA-MB-435, 2.72 µM [sample A, mean of 2 tests] and > 74.9 µM [sample B, mean of 2 tests] and 13.1 µM [sample C, mean of 2 tests]; in the assay with SF-268 CNS it was 9.33 µM [sample A, mean of 2 tests] and > 100 µM [sample B, mean of 2 tests] and > 33.5 µM [sample C, mean of 2 tests]. For the same compound, the concentration for 50% growth inhibition (GI50) is 51.4 µM [sample A, mean of 2 tests] and > 100 µM [sample B, mean of 2 tests] and 9.19 µM [sample C, mean of 2 tests] in the assay with SK-MEL-28 melanoma; 8.61 µM [sample A, 1 test] and > 100 µM [sample B, mean of 2 tests] and 7.71 µM [sample C, mean of 2 tests] in the assay on SK-OV-3 ovarian; 2.88 µM [sample A, mean of 2 tests] and > 100 µM [sample B, mean of 2 tests] and 3.61 µM [sample C, mean of 2 tests] in the assay on SN12C renal; 17.6 µM [sample A, mean of 2 tests] and > 85.3 µM [sample B, mean of 2 tests] and 4.87 µM [sample C, mean of 2 tests] in the assay on SW-620 colon; 12.4 µM [sample A, 1 test] and > 50.6 µM [sample B, mean of 2 tests] and 4.7 µM [sample C, mean of 2 tests] in the assay on TK-10 renal; 8.25 µM [sample A, mean of 2 tests] and > 100 µM [sample B, mean of 2 tests] and 12.5 µM [sample C, mean of 2 tests] in the assay with U251 CNS. Besides, in the assay with UACC-62 melanoma, the GI50 was 8.34 µM [sample A, mean of 2 tests] and > 100 µM [sample B, mean of 2 tests] and 6.99 µM [sample C, mean of 2 tests].
As to `CCOCC(=O)N[C@H]1CCc2cc(OC(=O)COCC)c(OC)c(OC)c2-c2ccc(SC)c(=O)cc21`, the TGI with CCRF-CEM leukemia was 862 nM and 69.2 nM; with DU-145 prostate, 76 nM and > 100 µM; with HCT-116 colon, 1.35 µM and 17.9 µM; with KM12 colon it was 77 nM and > 100 µM; in the assay with MDA-MB-231 breast, 187 nM and > 100 µM; in the assay with NCI-H23 lung, 823 nM and > 100 µM. Moreover, the total growth inhibition concentration (TGI) was 1.59 µM and > 100 µM with NCI-H460 lung; 915 nM and > 100 µM with OVCAR-8 ovarian; 8.12 µM and > 100 µM in the assay on PC-3 prostate; 1.18 µM and > 100 µM in the assay on SF-268 CNS; 54.6 nM and > 100 µM in the assay on SF-295 CNS; 997 nM and > 100 µM with SK-MEL-2 melanoma. Besides, the TGI is 57 nM and 30.5 µM in the assay with SK-MEL-5 melanoma; 955 nM and > 100 µM with SK-OV-3 ovarian; 904 nM and > 100 µM in the assay on U251 CNS.
